# Results taken from the antibiotic and cytotoxicity screens of Wong et al. (2023).
# This is one part of the list.
# Columns and labels:
# [1] = test system: HSkMC (human skeletal muscle cells); assay: cytotoxicity call (relative viability < 0.9); conditions: 10 µM
# [2] = test system: HepG2; assay: cytotoxicity call (relative viability < 0.9); conditions: 10 µM
# [3] = test system: S. aureus RN4220; assay: growth inhibition call (relative growth <= 0.2); conditions: 50 µM
Compound,cytotoxicity call [1],cytotoxicity call [2],growth inhibition call [3]
O=S1(=O)CO[C@@H](c2ccccc2)CN1,inactive,inactive,inactive
O=C(C[C@@H]1CC[C@@H]2[C@H](COC[C@H](O)CN2C(=O)c2ccccc2F)O1)N1CCN(c2ccccc2)CC1,inactive,inactive,inactive
C[C@@H]1CN([C@H](C)CO)C(=O)Cc2cc(NS(=O)(=O)c3cccs3)ccc2O[C@@H]1CN(C)C(=O)Nc1cccc2ccccc12,inactive,inactive,inactive
C[C@@H]1CCCCO[C@H](CN(C)C)[C@H](C)CN([C@@H](C)CO)C(=O)c2cc(NC(=O)Nc3ccc(C(F)(F)F)cc3)ccc2O1,inactive,active,inactive
NC(=O)c1ccccc1NC(=O)CCC(=O)O,inactive,inactive,inactive
O=S(=O)(c1ccc(-n2cnnn2)cc1)N1CCNCC1,inactive,inactive,inactive
OC[C@H]1O[C@@H]2O[C@H]3[C@H](O)[C@@H](O)[C@@H](O[C@H]4[C@H](O)[C@@H](O)[C@@H](O[C@H]5[C@H](O)[C@@H](O)[C@@H](O[C@H]6[C@H](O)[C@@H](O)[C@@H](O[C@H]7[C@H](O)[C@@H](O)[C@@H](O[C@H]1[C@H](O)[C@H]2O)O[C@@H]7CO)O[C@@H]6CO)O[C@@H]5CO)O[C@@H]4CO)O[C@@H]3CO,inactive,inactive,inactive
C[C@H]1CN([C@@H](C)CO)C(=O)Cc2cc(NC(=O)NC3CCCCC3)ccc2O[C@@H]1CN(C)C(=O)Nc1ccc(C(F)(F)F)cc1,inactive,inactive,inactive
C[C@@H]1CN([C@H](C)CO)C(=O)c2cc(NC(=O)c3ccccc3)ccc2O[C@@H](C)CCCCO[C@@H]1CN(C)S(=O)(=O)c1cccs1,inactive,inactive,inactive
C[C@@H]1CN([C@@H](C)CO)C(=O)c2cc(NC(=O)Nc3ccc(F)cc3)ccc2O[C@@H](C)CCCCO[C@@H]1CN(C)CC1CCCCC1,active,active,inactive
CO[C@@]1(NC(=O)CSC[C@@H](N)C(=O)O)C(=O)N2C(C(=O)O)=C(CSc3nnnn3C)CS[C@@H]21,inactive,inactive,inactive
COc1ccc(NC(=O)N(C)C[C@@H]2Oc3ccc(NC(=O)CCN4CCOCC4)cc3CC(=O)N([C@H](C)CO)C[C@@H]2C)cc1,inactive,inactive,inactive
NNC(=O)c1c(O)c2c([nH]c1=O)CCCC2,inactive,inactive,inactive
COCC#Cc1ccc2c(c1)O[C@@H](CN(C)S(C)(=O)=O)[C@@H](C)CN([C@H](C)CO)S2(=O)=O,inactive,inactive,inactive
CCOc1nc(N)cc(N)c1C#N,inactive,inactive,inactive
C[C@@H]1CN([C@H](C)CO)C(=O)Cc2cc(NC(=O)Nc3ccc(F)cc3)ccc2O[C@H]1CN(C)C(=O)Nc1cccc2ccccc12,inactive,inactive,inactive
C[C@@H]1CN([C@H](C)CO)C(=O)c2ccccc2-c2ccccc2CO[C@@H]1CN(C)Cc1ccccc1C(F)(F)F,inactive,inactive,inactive
COc1ccc(NC(=O)Nc2ccc3c(c2)C(=O)N([C@H](C)CO)C[C@@H](C)[C@@H](CN(C)Cc2ccc4c(c2)OCO4)OCCCC[C@H](C)O3)cc1,inactive,inactive,inactive
C[C@@H]1CCCCO[C@@H](CN(C)C(=O)Nc2cccc3ccccc23)[C@H](C)CN([C@@H](C)CO)C(=O)c2cc(NC(=O)Nc3ccc(F)cc3)ccc2O1,inactive,inactive,inactive
C[C@@H]1CN([C@H](C)CO)C(=O)Cc2cc(NC(=O)Nc3ccc(F)cc3)ccc2O[C@H]1CN(C)S(=O)(=O)c1cn(C)cn1,inactive,inactive,inactive
C[C@H](CO)N1C[C@H](C)[C@H](CN(C)Cc2ccc(C(=O)Nc3ccccc3N)cc2)Oc2ccc(NC(=O)Cc3cn(C)c4ccccc34)cc2CC1=O,active,active,inactive
C[C@@H]1CN([C@@H](C)CO)C(=O)Cc2cc(NC(=O)Cn3cnnn3)ccc2O[C@@H]1CN(C)S(=O)(=O)c1cccs1,inactive,inactive,inactive
O=C(O)c1cccnc1,inactive,inactive,inactive
O=C(C[C@@H]1CC[C@@H](NC(=O)Cc2ccccn2)[C@H](CO)O1)NCCc1ccncc1,inactive,inactive,inactive
Cc1ccc(S(=O)(=O)N(C)C[C@H]2OCCCC[C@H](C)Oc3ccc(NS(=O)(=O)c4ccc(F)cc4)cc3C(=O)N([C@H](C)CO)C[C@@H]2C)cc1,inactive,inactive,inactive
CCCN(C)C[C@@H]1OCCCC[C@@H](C)Oc2ccc(NC(=O)Nc3ccc(C(F)(F)F)cc3)cc2C(=O)N([C@H](C)CO)C[C@H]1C,inactive,inactive,active
C[N+](C)(C)CCCCNC(=O)[C@@H]1C[C@@H]2C(=O)N[C@@H](CCCC[N+](C)(C)C)C(=O)N2[C@@H]1c1cccc(OCCO)c1,inactive,inactive,inactive

Compound,cytotoxicity call [1],cytotoxicity call [2],growth inhibition call [3]
C[C@@H]1CN([C@H](C)CO)C(=O)Cc2cc(NS(=O)(=O)c3ccc(F)cc3)ccc2O[C@H]1CN(C)Cc1ccc(Oc2ccccc2)cc1,active,active,inactive
C[C@H]1CN([C@@H](C)CO)C(=O)c2cc(NS(=O)(=O)c3ccccc3)ccc2O[C@H]1CN(C)Cc1ccncc1,inactive,inactive,inactive
CC(C)(C)OC(=O)C[C@H]1CC=CC[C@@H](CC(=O)N[C@@H](CO)Cc2ccccc2)C(=O)N[C@@H](C(C)(C)C)COC1=O,inactive,inactive,inactive
C[C@H](CO)N1C[C@H](C)[C@@H](CN(C)C(=O)Nc2ccccc2)OCCCC[C@H](C)Oc2ccc(NC(=O)Cc3ccccc3)cc2C1=O,inactive,inactive,inactive
COCCNC(=O)C[C@@H]1CC[C@@H]2[C@H](COc3ccc(NS(=O)(=O)c4ccc(Cl)cc4)cc3C(=O)N2C)O1,inactive,inactive,inactive
Cc1ccccc1S(=O)(=O)N1C[C@H](O)COC[C@@H]2O[C@@H](CC(=O)N3CCOCC3)CC[C@H]21,inactive,inactive,inactive
C[C@@H]1CN([C@@H](C)CO)C(=O)Cc2cc(NS(=O)(=O)c3ccc(F)cc3)ccc2O[C@H]1CN(C)Cc1ccc(-c2ccccc2)cc1,inactive,inactive,inactive
Cc1noc(C)c1NC(=O)N(C)C[C@H]1Oc2ccc(NC(=O)c3ccncc3)cc2C(=O)N([C@H](C)CO)C[C@H]1C,inactive,inactive,inactive
O=C(CN1CCOCC1)N[C@@H]1CC[C@H](CCn2cc(C3CCCC3)nn2)O[C@H]1CO,inactive,inactive,inactive
COc1cccc(S(=O)(=O)N[C@@H]2CC[C@H](CC(=O)NC3CCC3)O[C@@H]2CO)c1,inactive,inactive,inactive
C[C@H]1CN([C@@H](C)CO)C(=O)Cc2cc(NC(=O)Nc3cccc4ccccc34)ccc2O[C@H]1CN(C)C(=O)Nc1ccc2c(c1)OCO2,inactive,inactive,inactive
C=CCC[C@H](Cc1ccc(F)cc1)C(=O)OC[C@H](Cc1c[nH]c2ccccc12)NC(=O)[C@@H](CC=C)CC(=O)N[C@@H](CO)Cc1ccccc1,active,active,inactive
CC1=CC(=O)C2C(C)(C)CCCC2(C)C1(O)CCc1ccoc1 (configuration not stated),inactive,inactive,inactive
COc1ccc(S(=O)(=O)N(C)C[C@H]2Oc3ccc(NC(=O)c4ccncc4)cc3CC(=O)N([C@@H](C)CO)C[C@H]2C)cc1,inactive,inactive,inactive
Cc1nn(C)c(C)c1CN,inactive,inactive,inactive
Cc1noc(C)c1NC(=O)Nc1ccc2c(c1)CC(=O)N([C@H](C)CO)C[C@@H](C)[C@H](CN(C)S(=O)(=O)c1cccs1)O2,inactive,inactive,inactive
CCN(CC)[C@H]1CCS(=O)(=O)C1,inactive,inactive,inactive
C[C@H](CO)N1C[C@H](C)[C@H](CN(C)C(=O)Nc2ccc(F)cc2)Oc2ncc(C#CC(C)(C)O)cc2C1=O,inactive,inactive,inactive
COc1ccc(S(=O)(=O)Nc2ccc3c(c2)CC(=O)N([C@H](C)CO)C[C@H](C)[C@H](CN(C)S(=O)(=O)c2ccccc2)O3)cc1,inactive,inactive,inactive
C[C@H]1CN([C@@H](C)CO)C(=O)c2cccc(NC(=O)c3ccncc3)c2O[C@H]1CN(C)Cc1ccc2c(c1)OCO2,inactive,inactive,inactive
C[C@H]1CN([C@@H](C)CO)C(=O)c2cccc(NC(=O)c3ccncc3)c2O[C@@H]1CN(C)S(=O)(=O)c1ccccc1,inactive,inactive,inactive
Cc1noc(C)c1NC(=O)N(C)C[C@H]1Oc2ccc(NC(=O)Cn3cnnn3)cc2CC(=O)N([C@@H](C)CO)C[C@H]1C,inactive,inactive,inactive
COc1ccc(S(=O)(=O)Nc2ccc3c(c2)C(=O)N([C@H](C)CO)C[C@H](C)[C@@H](CN(C)S(=O)(=O)c2ccc(Cl)cc2)OCCCC[C@@H](C)O3)cc1,inactive,active,inactive
C[C@@H]1CN([C@@H](C)CO)C(=O)c2cc(NC(=O)NC3CCCCC3)ccc2O[C@@H]1CN(C)S(=O)(=O)c1cn(C)cn1,inactive,inactive,inactive
C[C@@H]1CCCCO[C@@H](CN(C)C(=O)NC2CCCCC2)[C@H](C)CN([C@@H](C)CO)C(=O)c2cc(NC(=O)C3CCCCC3)ccc2O1,inactive,inactive,inactive
C[C@@H]1CCCCO[C@@H](CN(C)Cc2ccc3c(c2)OCO3)[C@@H](C)CN([C@@H](C)CO)C(=O)c2cc(NC(=O)Nc3cccc4ccccc34)ccc2O1,inactive,inactive,inactive
COc1ccccc1S(=O)(=O)N(C)C[C@@H]1Oc2cc(C#CCC(C)C)ccc2S(=O)(=O)N([C@H](C)CO)C[C@H]1C,inactive,inactive,inactive
